Out of some 370,000 compounds screened, about 150 (0.041%) were called active. Inconclusive results, whose numbers are uncertain, are shown with a selection of clear calls. Calls come from the whole dose curve; as a rule, active = well fitted inhibition curve with a large enough effect; inconclusive = small, poorly fitted or top-dose-only effect; inactive = flat fitted curve, though single readings scatter. Potencies of inconclusive entries are left out as doubtful fits.
Each compound was assayed against Beta-lactamase (Escherichia coli (strain K12)) (UniProt P00811) (assay: qHTS Inhibitors of AmpC Beta-Lactamase (assay with detergent)). Conditions: AmpC hydrolysis of nitrocefin, absorbance 480 nm, 0.01% Triton; activity change, negative = inhibition: at 114 µM (top of the series).
Chain of UniProt P00811 (P00811 whole entry, looked up): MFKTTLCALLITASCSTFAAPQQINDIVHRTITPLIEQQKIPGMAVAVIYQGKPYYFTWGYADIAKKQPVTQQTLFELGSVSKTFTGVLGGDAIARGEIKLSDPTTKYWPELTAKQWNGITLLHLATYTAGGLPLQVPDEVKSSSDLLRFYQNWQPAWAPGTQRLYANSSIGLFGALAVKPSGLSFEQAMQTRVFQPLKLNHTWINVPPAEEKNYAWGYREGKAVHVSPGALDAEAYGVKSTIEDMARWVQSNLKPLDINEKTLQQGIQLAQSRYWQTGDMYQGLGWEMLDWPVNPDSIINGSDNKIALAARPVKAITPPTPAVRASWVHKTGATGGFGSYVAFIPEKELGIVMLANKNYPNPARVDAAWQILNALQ
Procedure, shortened: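 20 mM phosphate pH 7.0 + 0.01% (detergent screen) or 0.0001% Triton X-100; 5.3 nM AmpC reagent; cpd preinc 15 min RT; nitrocefin (800 uM stock) to start; A480 q20 s × 4 min; Activity was normalised to no-enzyme and no-compound control wells.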
`O=C(CSc1nnc(-c2ccncc2)n1-c1ccc(F)cc1)NNC(=O)c1cccc(O)c1` was tested, and the Potency was inconclusive [inhibitor, full curve, poor fit].
For `CCOC(=O)c1c(C)[nH]c(C(=O)COC(=O)/C=C/c2ccc3c(c2)OCO3)c1C`, the Potency was inconclusive [inhibitor, full curve, poor fit].
`CCn1cc(C(=O)NCCCN(C)c2ccccc2)c(=O)c2cc(S(=O)(=O)N(C)C)ccc21` was tested, and the Potency was inconclusive [inhibitor, full curve, poor fit].
For `Nc1ccc2c(c1)nc(Cc1ccccc1)n2CCO`, the “activity change, negative = inhibition” value was inactive: 8.04%.
With `Cc1c(N(C)S(=O)(=O)c2ccc(Cl)c(C(=O)N3CCC(C(N)=O)CC3)c2)c(=O)n(-c2ccccc2)n1C` the “activity change, negative = inhibition” value was inactive: -9.78%.
For `CCOC(=O)C(C)Sc1nc2ccccc2c(=O)n1CC` (stereo unspecified), the Potency was inconclusive [inhibitor, full curve, poor fit].
With `CC(=O)OCP(C)(=O)COC(C)=O` the Potency was inconclusive [inhibitor, full curve].
In the case of `O=c1cc(N2CCN(c3cccc(Cl)c3)CC2)[nH]c(=O)n1C1CCCCC1`, the “activity change, negative = inhibition” value is reported as inactive: -9.71%.
In the case of `Cc1nc(SCc2ccc(Cl)c(Cl)c2)n[nH]1`, the Potency is reported as inconclusive [inhibitor, full curve, poor fit].
For `NS(=O)(=O)c1cccc(NC(=O)COC(=O)Cn2cc(C(F)(F)F)ccc2=O)c1`, the “activity change, negative = inhibition” value was inactive: -4.48%.
For `O=C(COc1ccc2c(c1)oc(=O)c1ccccc12)NCC1CCC(C(=O)O)CC1` (stereo unspecified), the Potency was inconclusive [inhibitor, partial curve, poor fit].
With `O=C(O)c1cc(Cl)c(Cl)cc1C(=O)Nc1cccc2cccnc12` the Potency was inconclusive [inhibitor, partial curve, poor fit].
For `CCCc1cc(=O)[nH]c(SCC(=O)Nc2cc(S(=O)(=O)N3CCCCC3)ccc2C)n1`, the Potency was inconclusive [inhibitor, full curve, poor fit].
In the case of `Cc1nc2scc(-c3ccc(Cl)cc3)c2c(=O)o1`, the Potency is reported as inconclusive [inhibitor, full curve, poor fit].
With `COc1ccc(-n2c(Cc3cccn3C)nnc2SCC(=O)Nc2ccc(C)cc2)cc1` the Potency was inconclusive [inhibitor, full curve, poor fit].
`CCN(CC)c1nc2cc(OC)ccc2cc1C#N` was tested, and the Potency was inconclusive [inhibitor, full curve, poor fit].
With `CCCC(C(=O)NC(C)(C)C)N(C(=O)c1snc(C(N)=O)c1N)c1ccc2c(c1)OCCO2` (stereo unspecified) the Potency was inconclusive [inhibitor, partial curve, poor fit].
In the case of `O=C(CN1CCOCCOCCOCCOCC1)Nc1ccccc1`, the Potency is reported as inconclusive [inhibitor, partial curve].
In the case of `O=C1C2CCCN2C(=S)N1c1ccccc1` (stereo unspecified), the Potency is reported as inconclusive [inhibitor, full curve].
`COc1ccc(Cl)cc1NC(=O)C/C(C)=N/NC(=O)CCc1ccccc1` was tested, and the Potency was inconclusive [inhibitor, full curve, poor fit].
`CC1CCN(C(=O)COC(=O)c2cc(S(=O)(=O)N3CCOCC3)ccc2Cl)CC1` was tested, and the Potency was inconclusive [inhibitor, full curve, poor fit].
For `Cc1noc(/C=C/c2ccco2)c1S(=O)(=O)N1CCC(C(=O)N(C)Cc2ccccc2)CC1`, the “activity change, negative = inhibition” value was inactive: -10.8%.
For `O=C(Cn1cnc([N+](=O)[O-])n1)N/N=C/c1cccc(Cl)c1`, the Potency was inconclusive [inhibitor, single point].
In the case of `Cc1ccc(S(=O)(=O)N2CCOCC2)cc1C(=O)N1c2ccccc2Sc2ccccc21`, the Potency is reported as inconclusive [inhibitor, full curve].
For `COC(=O)C(C)N(C(=O)c1ccc(Cl)cc1)c1c(C)cccc1C` (stereo unspecified), the Potency was inconclusive [inhibitor, full curve, poor fit].
For `Cc1cc2ncn(C(=O)c3ccc4c(c3)OCO4)c2cc1C`, the “activity change, negative = inhibition” value was inactive: 3.01%.
In the case of `Cc1ccc(SCc2nc3ccccc3n2CC(=O)Nc2c(C)cccc2C)cc1`, the Potency is reported as inconclusive [inhibitor, full curve, poor fit].
`O=C1CSC(=NC2CCCCC2)N1` was tested, and the Potency was inconclusive [inhibitor, full curve].
With `CC(C)(C)c1ccc(CNc2ccc([N+](=O)[O-])cn2)cc1` the “activity change, negative = inhibition” value was inactive: -6.07%.
In the case of `CN(Cc1ccccc1F)C(=O)C1CCCN(C(=O)c2ccc(Cl)cc2)C1` (stereo unspecified), the Potency is reported as inconclusive [inhibitor, partial curve, poor fit].
`CCCOc1ccc(N2C(=O)CC(N(CCC)C(=O)CCC(=O)O)C2=O)cc1` (stereo unspecified) was tested, and the “activity change, negative = inhibition” value was inactive: -1.26%.
With `CC(NC(=O)CSc1nc(C2CC2)n(-c2ccccc2)n1)c1ccco1` (stereo unspecified) the Potency was inconclusive [inhibitor, full curve, poor fit].
`O=C(CCC(=O)N1C[C@H]2C[C@@H](C1)c1cccc(=O)n1C2)NCc1ccccc1` was tested, and the Potency was inconclusive [inhibitor, partial curve, poor fit].
For `CCc1n[nH]c(=S)n1/N=C/C(C)=C\c1ccccc1`, the Potency was inconclusive [inhibitor, full curve, poor fit].
In the case of `N#CCCN(C(=S)NC(=O)c1ccco1)c1ccccc1F`, the Potency is reported as inconclusive [inhibitor, partial curve, poor fit].
With `FC(F)(F)c1ccc(NC2=NCCC2)cc1` the Potency was inconclusive [inhibitor, partial curve, poor fit].
With `Cc1ccccc1OCc1ccc(-c2nc(C#N)c(N3CCN(c4cccc(Cl)c4)CC3)o2)o1` the Potency was inconclusive [inhibitor, single point].
In the case of `O=C1NC(c2ccccc2)=NC1(NS(=O)(=O)c1ccc(Cl)cc1)C(F)(F)F` (stereo unspecified), the Potency is reported as inconclusive [inhibitor, single point].
`Cc1ccc(SCCC(=O)Nc2ccccc2C(=O)NC(C)C)cc1` was tested, and the Potency was inconclusive [inhibitor, single point].
For `CC(=O)CC(=O)Nc1ccc(Cl)cn1`, the “activity change, negative = inhibition” value was inactive: 3.09%.
`Cc1cc(C)cc(NC(=O)Cc2noc3ccccc23)c1` was tested, and the “activity change, negative = inhibition” value was inactive: 0.767%.

From PubChem BioAssay AID485294 (National Center for Advancing Translational Sciences (NCATS), 2010)
Note: nearly all actives have a fitted effect of over 25% in size.
Potency is the fitted concentration of half-maximal effect; tags give direction and shape of the fitted curve.
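Throughout, for activity change, negative = inhibition: 0% = no-compound wells and -100% = no-enzyme wells.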
